# According to the supplement of paper PMC4723716:
# ± gives the uncertainty stated by the source. Whole data set: some 9,900 compounds, median “viability index relative to DMSO control” near 1, cut for the lowest 2% near 0.85. This is one part of the list.
# System: Plasmodium falciparum NF54 stage V gametocytes
# Test: viability index relative to DMSO control (fraction); higher = less gametocyte killing
# Details: 2.5 µM, library set: Broad Institute DOS, incubation time: 72 h
# Outline: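 Gametocytes (P. falciparum NF54, stage V) were treated with compound at 2.5 µM for 72 hr at 37°C in low oxygen, in serum-free medium at 0.75% gametocytemia and 1.25% hematocrit. Counts of 20–70 µm2 red particles, taken from one field per well after MitoTracker Red CMXRos with saponin, were divided by the plate mean of solvent-only wells. This ratio is the viability index.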
row,Structure (SMILES),viability index
1,O=C1CNC[C@H]2[C@@H](c3ccc(C4=CCCC4)cc3)[C@@H](CO)N12,1.061 ± 0.0039
2,CCCNC(=O)N1C[C@@H]2[C@H](c3ccccc31)[C@@H](CO)N2C(=O)Nc1ccccc1F,1.057 ± 0.0068
3,C[C@@H]1CN([C@@H](C)CO)C(=O)c2cc(NS(=O)(=O)c3cn(C)cn3)ccc2O[C@@H](C)CCCCO[C@@H]1CN(C)C(=O)Nc1ccc(C(F)(F)F)cc1,1.06 ± 0.083
4,CN1C(=O)c2cc(NC(=O)Cc3cccs3)ccc2OC[C@@H]2O[C@@H](CC(=O)NCC3CCCCC3)CC[C@H]21,1.14 ± 0.17
5,CCS(=O)(=O)Nc1ccc2c(c1)C(=O)N(C)C[C@H](OC)[C@@H](C)CN(C(=O)c1ccc3c(c1)OCO3)[C@@H](C)CO2,1.11 ± 0.029
6,C[C@H](CO)N1C[C@H](C)[C@@H](CN(C)C(=O)Nc2ccccc2C(F)(F)F)OCc2ccccc2-c2c(n(C)c3ccccc23)C1=O,0.9944 ± 0.009
7,O=C(O)[C@H]1[C@H](CO)[C@H]2Cn3c(ccc(C4=CCCCC4)c3=O)[C@H]2N1Cc1ccc2c(c1)OCO2,1.01 ± 0.026
8,C[C@@H]1CCCCO[C@H](CN(C)S(=O)(=O)c2cn(C)cn2)[C@@H](C)CN([C@@H](C)CO)C(=O)c2cc(N(C)C)ccc2O1,1.16 ± 0.023
9,CC(=O)N1CC2(C1)[C@@H](c1ccccc1)[C@@H](CO)N2C(=O)c1cnccn1,1.07 ± 0.036
10,CCCNC(=O)N(C)C[C@H]1Oc2cc(C#C[C@H](C)O)ccc2S(=O)(=O)N([C@@H](C)CO)C[C@H]1C,1.03 ± 0.034
11,O=C(Nc1cc(F)ccc1F)N1CCCCN2[C@H](CO)[C@H](c3ccc(C4=CCCCC4)cc3)[C@H]2C1,0.686 ± 0.018
12,C[C@H]1CN([C@@H](C)CO)C(=O)c2cc(C#CC3(O)CCCC3)cnc2O[C@@H]1CN(C)S(=O)(=O)c1cccc(F)c1,1.04 ± 0.019
13,COc1cccc(-c2ccc3c(c2)[C@H]2[C@H](CCN2S(=O)(=O)c2ccccc2F)[C@@H](CO)N3)c1,0.932 ± 0.097
14,O=C(C1CCCCC1)N1CC(=O)N2[C@H](CO)[C@@H](c3ccc(-c4ccccc4F)cc3)[C@H]2C1,1.08 ± 0.025
15,CN(C[C@H]1N[C@@H](CO)[C@H]1c1ccc(-c2cccc(F)c2)cc1)C(=O)CC1CC1,0.977 ± 0.086
16,COc1ccc2c3c([nH]c2c1)[C@@H](CO)N(C[C@]31CN(Cc2ccc(F)cc2)C1)C(=O)NC(C)C,1.03 ± 0.034
17,COCC(=O)N1[C@H](CNC(=O)c2ccccn2)[C@@H](c2ccccc2)[C@@H]1CO,1.011 ± 0.0052
18,C[C@H](CO)N1C[C@H](C)[C@@H](CN(C)S(C)(=O)=O)Oc2ccc(NC(=O)NC3CCCCC3)cc2C1=O,1.03 ± 0.028
19,Cc1ccccc1-c1ccc([C@H]2[C@H]3CNC[C@@H]2N3C(=O)Nc2ccc(F)cc2)cc1,1.02 ± 0.027
20,O=C(O)C[C@H]1C[C@H]2c3cc(NC(=O)Nc4ccc(C(F)(F)F)cc4)ccc3O[C@H]2[C@@H](CO)O1,1.06 ± 0.041
21,O=C(C[C@@H]1C[C@H]2c3cc(NC(=O)Nc4ccccc4)ccc3O[C@H]2[C@H](CO)O1)NCc1ccccc1,1.058 ± 0.0017
22,O=C(C1CCOCC1)N1CC(=O)N2[C@H](CO)[C@H](c3ccc(-c4cccnc4)cc3)[C@H]2C1,0.987 ± 0.09
23,O=C(c1cnccn1)N1CC(=O)N2[C@H](CO)[C@@H](c3ccc(C#CC4CC4)cc3)[C@@H]2C1,1.002 ± 0.0097
24,CO[C@H]1CN(C)C(=O)c2cc(NC(=O)C3CC3)ccc2OC[C@H](C)N(Cc2cc(F)ccc2F)C[C@H]1C,0.871 ± 0.12

row,Structure (SMILES),viability index
1,C[C@H]1CN([C@@H](C)CO)C(=O)CCCn2nncc2CO[C@H]1CN(C)S(=O)(=O)c1ccc(Oc2ccccc2)nc1,1.08 ± 0.033
2,N#Cc1ccc(-c2ccc([C@@H]3[C@@H]4CN(C(=O)Nc5ccc6c(c5)OCO6)C[C@H]3N4)cc2)cc1,0.56 ± 0.15
3,O=C(Nc1ccccc1)N1C[C@@H]2N[C@H](C1)[C@H]2c1ccc(-c2ccccc2F)cc1,1.1 ± 0.05
4,COc1cccc(NC(=O)Nc2ccc3c(c2)C(=O)N(C)C[C@H](OC)[C@@H](C)CN[C@@H](C)CO3)c1,1.021 ± 0.0027
5,O=C(C1CCOCC1)N1[C@@H](CO)[C@@H](c2ccccc2)C12CN(Cc1cccc(Cl)c1)C2,1.103 ± 0.0018
6,O=C(C[C@@H]1C=C[C@H](NC(=O)C2CCC2)[C@H](CO)O1)NC1CCCCC1,0.999 ± 0.027
7,CO[C@H]1CN(C)C(=O)c2ccc(NC(=O)Nc3cc(F)ccc3F)cc2OC[C@@H](C)N(C(=O)c2ccccn2)C[C@@H]1C,1.0784 ± 0.00021
8,CC(C)NC(=O)N1[C@@H](CO)[C@@H](c2ccccc2)C12CN(Cc1cc(F)cc(F)c1)C2,1.11 ± 0.063
9,COCC(=O)N1CC(=O)N2[C@H](C1)[C@@H](c1ccc(-c3ccccc3F)cc1)[C@@H]2CO,1.008 ± 0.0011
10,CCCNC(=O)N1CC(=O)N2[C@H](C1)[C@H](c1ccc(-c3ccc(F)cc3)cc1)[C@@H]2CO,1.06 ± 0.09
11,Cc1ccccc1-c1ccc([C@H]2[C@@H]3CN(Cc4cocn4)C[C@H]2N3)cc1,0.918 ± 0.0095
12,O=C(C[C@@H]1CC[C@@H](NC(=O)c2ccc3c(c2)OCO3)[C@H](CO)O1)NCc1ccc(Oc2ccccc2)cc1,1.11 ± 0.16
13,COc1ccc2c3c([nH]c2c1)[C@H](CO)N(Cc1cc(F)ccc1F)C[C@]31CN(C1)C(=O)C1CCC1,0.9961 ± 0.0055
14,COC(=O)C[C@H]1CC[C@H]2[C@@H](COC[C@H](O)CN2S(=O)(=O)c2ccccc2OC)O1,1.01 ± 0.052
15,CCC(=O)N1Cc2cc(C(=O)NCCOC)nc(-c3cccc(-c4ccc(C#N)cc4)c3)c2[C@@H]1CCO,1.06 ± 0.028
16,C[C@@H]1CN([C@@H](C)CO)C(=O)c2ccccc2-c2ccccc2CO[C@H]1CN(C)S(=O)(=O)c1ccc([N+](=O)[O-])cc1,1.011 ± 0.003
17,CS(=O)(=O)N1CC2(C1)[C@@H](c1ccccc1)[C@@H](CO)N2Cc1ccccc1,1.09 ± 0.012
18,CN(C)C(=O)C[C@@H]1C=C[C@@H](NC(=O)c2ccc(F)cc2)[C@H](CO)O1,1.05 ± 0.075
19,CN1C(=O)c2cc(NC(=O)c3ccc(C(F)(F)F)cc3)ccc2OC[C@H]2O[C@H](CC(=O)NCc3ccc4c(c3)OCO4)CC[C@H]21,1.09 ± 0.0048
20,C(=C\c1ccc([C@H]2[C@H]3CNC[C@@H]2N3Cc2cncnc2)cc1)/c1ccccc1,1.09 ± 0.073
21,C[C@@H]1CN([C@H](C)CO)C(=O)CCCn2cc(nn2)CO[C@H]1CN(C)S(=O)(=O)c1ccc(-n2cccn2)cc1,1.1 ± 0.049
22,COC(=O)C[C@@H]1C[C@@H]2c3cc(N)ccc3O[C@@H]2[C@H](CO)O1,1.07 ± 0.074
23,O=C(C[C@@H]1C[C@@H]2c3cc(NS(=O)(=O)c4ccccc4)ccc3O[C@@H]2[C@H](CO)O1)NCC(F)(F)F,1.067 ± 0.0094
24,COCC#Cc1ccc([C@H]2[C@@H](CO)N3CCCCN(C(=O)NC4CCCC4)C[C@@H]23)cc1,1.049 ± 0.0079

row,Structure (SMILES),viability index
1,CO[C@H]1CN(C)C(=O)c2ccc(NC(=O)c3ccccc3F)cc2OC[C@@H](C)N(C)C[C@H]1C,1.04 ± 0.077
2,O=C(C[C@@H]1C=C[C@@H](NC(=O)Cc2cccnc2)[C@@H](CO)O1)NCc1ccc2c(c1)OCO2,1.1 ± 0.041
3,O=C(C[C@H]1C[C@@H]2c3cc(NS(=O)(=O)c4ccc(F)cc4)ccc3O[C@@H]2[C@@H](CO)O1)NCc1cccnc1,1.11 ± 0.017
4,COCCN(C[C@H]1[C@H](c2ccccc2)[C@@H](CO)N1C(C)=O)C(=O)c1cccnc1,0.961 ± 0.057
5,COCCNC(=O)[C@H]1[C@H](CO)[C@H]2Cn3c(ccc(C4=CCCCC4)c3=O)[C@@H]1N2Cc1cocn1,1.06 ± 0.018
6,Cc1noc(C)c1S(=O)(=O)Nc1ccc2c(c1)C(=O)N([C@H](C)CO)C[C@H](C)[C@H](CN(C)C(=O)Nc1cccc3ccccc13)OCCCC[C@@H](C)O2,1.04 ± 0.084
7,C[C@@H]1CN([C@H](C)CO)C(=O)c2ccccc2-c2ccccc2CO[C@H]1CN(C)C(=O)Nc1ccc(-c2ccccc2)cc1,0.923 ± 0.048
8,O=C1CCCn2cc(nn2)COC[C@@H](c2ccccc2)N1,1.04 ± 0.053
9,COC(=O)C[C@@H]1C[C@H]2c3cc(N)ccc3O[C@H]2[C@H](CO)O1,1.05 ± 0.073
10,COc1ccc2c3c([C@@H](CO)NC[C@]33CCN(CC3)C(=O)Nc3ccc(F)cc3F)n(C)c2c1,1.06 ± 0.037
11,CCc1nc(N2[C@H](C#N)[C@@H](c3ccccc3-c3ccccc3C)[C@@H]2CO)sc1C,1.07 ± 0.088
12,COc1ccccc1C#Cc1ccc([C@@H]2[C@@H](CO)N3CCCCN(C(=O)C4CCC4)C[C@H]23)cc1,0.9445 ± 0.007
13,CC(C)CC#Cc1ccc([C@H]2[C@H](CO)N3C(=O)CN(S(=O)(=O)c4cccc(F)c4)C[C@@H]23)cc1,0.987 ± 0.021
14,N#C[C@H]1[C@@H](c2ccc(-c3cccc(F)c3)cc2)[C@@H](CO)N1c1nc(-c2ccccc2)cs1,1.08 ± 0.1
15,COc1ccc(NC(=O)N(C)C[C@H]2OCCCC[C@@H](C)Oc3ccc(NC(=O)c4ccncc4)cc3C(=O)N([C@@H](C)CO)C[C@H]2C)cc1,1.09 ± 0.019
16,C[C@@H]1CN([C@@H](C)CO)C(=O)c2cc(NS(C)(=O)=O)ccc2O[C@@H](C)CCCCO[C@@H]1CN(C)C(=O)Cc1ccccc1,1.11 ± 0.032
17,COc1ccc2c3c([nH]c2c1)[C@@H](CO)N(C[C@]31CCN(CC1)C(=O)c1ccc2OCOc2c1)C(C)=O,0.989 ± 0.061
18,COC(=O)C[C@@H]1C[C@@H]2c3cc(NC(=O)c4ccc5c(c4)OCO5)ccc3O[C@@H]2[C@H](CO)O1,0.991 ± 0.033
19,CO[C@@H]1CC[C@@H]2CCOc3ccc(C#N)cc3C(=O)N(C)[C@H](C)C(=O)N(C)C[C@H]1O2,1.1 ± 0.021
20,C[C@@H](NC(=O)C[C@@H]1CC[C@@H]2[C@H](COc3ccc(NC(=O)C4CCOCC4)cc3C(=O)N2C)O1)c1ccccc1,1.145 ± 0.011
21,COc1cccc(C(=O)Nc2ccc3c(c2)OC[C@H](C)N(CCc2ccccc2)C[C@@H](C)[C@@H](OC)CN(C)C3=O)c1,1.13 ± 0.12
22,C[C@@H]1CN([C@H](C)CO)C(=O)Cc2cc(N(C)C)ccc2O[C@H]1CN(C)Cc1ccc(-c2ccccc2)cc1,0.954 ± 0.039
23,CNC[C@H]1Oc2c(NS(=O)(=O)c3ccc(Cl)cc3)cccc2C(=O)N([C@@H](C)CO)C[C@@H]1C,0.893 ± 0.14
